Whole data set: some 110,000 compounds, median “z-score” near -0.1, cut for the highest 2% near 2. This is one part of the list. Activity calls are given as the source filed them.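 How the source made its calls: active means z-score in the third read window above 3 or below -3; inactive means the rest.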
Target: Metabotropic glutamate receptor 8 (Rattus norvegicus) (UniProt P70579)
Test: rat mGluR8 modulators via GIRK flux, primary screen, cell-based, thallium flux, HTS (AID 488969)
Conditions: HEK293 rat mGluR8, GIRK (G protein-gated inwardly rectifying potassium channel) thallium flux, FluoZin2; at 10 µM; stronger effect = higher value; submaximal glutamate (EC20) added with thallium

UniProt P70579, sequence (P70579 whole entry, looked up): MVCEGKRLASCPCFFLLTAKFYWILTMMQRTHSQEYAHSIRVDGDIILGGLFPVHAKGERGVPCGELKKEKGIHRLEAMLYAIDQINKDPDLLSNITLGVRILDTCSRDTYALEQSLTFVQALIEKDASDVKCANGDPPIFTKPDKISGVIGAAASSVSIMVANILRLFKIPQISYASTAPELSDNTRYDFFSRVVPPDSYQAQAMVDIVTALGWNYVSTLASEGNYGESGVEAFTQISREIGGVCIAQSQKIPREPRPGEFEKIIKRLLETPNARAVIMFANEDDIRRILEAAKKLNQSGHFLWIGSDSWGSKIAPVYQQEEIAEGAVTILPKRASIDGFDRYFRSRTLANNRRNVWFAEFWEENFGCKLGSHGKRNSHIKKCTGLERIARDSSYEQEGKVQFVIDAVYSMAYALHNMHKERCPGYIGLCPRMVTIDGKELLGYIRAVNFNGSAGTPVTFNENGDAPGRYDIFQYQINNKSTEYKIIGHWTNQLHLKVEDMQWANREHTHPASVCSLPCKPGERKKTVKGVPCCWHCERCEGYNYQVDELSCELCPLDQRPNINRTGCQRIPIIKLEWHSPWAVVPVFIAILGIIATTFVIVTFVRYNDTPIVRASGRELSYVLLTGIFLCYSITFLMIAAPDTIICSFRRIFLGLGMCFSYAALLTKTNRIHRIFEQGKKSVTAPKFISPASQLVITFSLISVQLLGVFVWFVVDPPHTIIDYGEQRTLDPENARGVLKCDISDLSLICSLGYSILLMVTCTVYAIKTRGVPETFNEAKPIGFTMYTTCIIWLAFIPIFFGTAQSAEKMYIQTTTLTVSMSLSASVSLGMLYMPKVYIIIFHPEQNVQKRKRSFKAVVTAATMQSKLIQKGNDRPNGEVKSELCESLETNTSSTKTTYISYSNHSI

Compound | z-score
CCSc1ncnc2c(C#N)c3n(c12)CCCCC3 | -0.627
COc1ccc(OC)c(C2C(C(N)=O)=C(C)Nc3nc(-c4cccc(Cl)c4)nn32)c1 (stereo not given) | 1.16
COc1ccc(/C=C/c2nc3ccccc3n2Cc2ccc(OC)c(OC)c2)cc1 | -0.737
Cc1ccccc1-n1c(Cc2cccs2)n[nH]c1=S | -0.1
O=C(NC1CCCC1)C(c1ccc(F)cc1)N(Cc1ccc(Cl)cc1)C(=O)CCl (stereo not given) | -0.114
COc1ccc(S(=O)(=O)N(C)CC(=O)N2CCC(C)CC2)cc1Cl | -0.133
Cc1ccc(NC(=O)C2CCCN(S(=O)(=O)c3cnc[nH]3)C2)c(Br)c1 (stereo not given) | -0.33
COc1ccccc1CN1CCN(C(=O)c2ccncc2)CC1 | -0.336
CCOc1ccc(N2C(=O)c3cccnc3C2=O)cc1 | -0.0144
Cc1cc(=O)c2ccccc2n1CC(=O)NCc1ccccc1 | -0.147
COCCn1c(=NC(=O)c2cc3ccccc3oc2=O)sc2cc(S(N)(=O)=O)ccc21 | -0.106
S=C(NCCCN1CCOCC1)NCCCN1CCOCC1 | -0.101
COC(=O)CN(CCc1ccccc1)S(=O)(=O)c1ccc(OC)c(OC)c1 | -0.251
Cc1csc(N(C)C(=O)CSc2nnc(COc3cccc4ccccc34)o2)n1 | 0.64
Cc1ccc(N(CC(N)=O)C2SC(=O)N(Cc3cccc(C(=O)O)c3)C2=O)cc1 (stereo not given) | 0.658
CC(C)OC(=O)c1c(N)n(CCCN2CCOCC2)c2nc3ccccc3nc12 | -0.444
CC(C)Oc1cc2oc(=O)c3c(c2cc1Cl)CCC3 | 0.087
O=C(c1ccco1)[C@@H]1[C@@H]2C(=O)N(c3ccccc3)C(=O)[C@@H]2C2c3ccccc3C=CN21 (stereo not given in full) | 0.151
Cc1nc(CNS(=O)(=O)c2cc(F)ccc2F)cs1 | 0.38
CC(C)Oc1ccc2ccccc2c1C=O | -0.494
CCCCCc1c(C)nc(Nc2nc(C)c3cc(OC)ccc3n2)[nH]c1=O | -0.0375
CCN(CC)CCNC(=O)c1cn(-c2ccccc2)nc1-c1cccs1 | -0.489
O=C1CC(c2cccc(F)c2)C2=C(CCCC2=O)N1 (stereo not given) | -0.621
Cc1ccccc1-n1c(Cn2c(=O)sc3ccccc32)nnc1SCC(=O)NCC1CCCO1 (stereo not given) | -0.139
O=C(COc1ccc(S(=O)(=O)N2CCCC2)cc1)NCCC1=CCCCC1 | 0.0235
Cc1ccc(/C(N)=N/OC(=O)c2ccco2)cc1 | -0.0197
O=C(COc1ccc(F)cc1)c1ccc2c(c1)CCCC2 | -0.307
CCc1cc(OCCN2C(=O)NC(C)(C)C2=O)ccc1Cl | -0.278

Compound | z-score
Cc1ccc(NC(=O)C2C3CC4OC(=O)C2C4C3)cc1Cl (stereo not given) | 0.462
Cc1c(OC(=O)c2ccc([N+](=O)[O-])cc2)c2c(c[n+]1C)COC(C)(C)OC2 | 0.225
Cc1ccsc1C1Nc2ccccc2-c2nc3ccccc3n21 (stereo not given) | -0.965
Cc1ccc(CSCC(=O)N/N=C/c2cccc(OC3CSC3)c2)cc1 | 0.825
CCC(C)(c1ccc(C=O)s1)c1ccc(C=O)s1 | -0.34
CCC1(CC)Cc2ccccc2C(=C(C#N)C#N)N1 | -0.603
COCCNCc1ccccc1 | -0.504
CCOC(=O)N1CCN(C(=O)c2cnn3c(C)c(Cc4ccc(C)cc4)c(C)nc23)CC1 | -1.58
CC1(C)Oc2ccc(NC(=O)C3COc4ccccc4O3)cc2O1 (stereo not given) | -0.379
CC(=O)C1=C(O)C(=O)N(CCN(C)C)C1c1ccc(Cl)cc1 (stereo not given) | 0.396
CC(NC(=O)Nc1ncccn1)(C(F)(F)F)C(F)(F)F | 0.179
COc1ccc(C(=O)NNC(=O)C(Cc2ccc(O)cc2)NC(=O)c2ccccc2NC(=O)c2ccc(OC)cc2)cc1 (stereo not given) | 1.4
Cc1ccc([N+](=O)[O-])cc1NC(=S)NC(=O)c1ccco1 | active: 7.69
CCCN(S(=O)(=O)c1ccc(OCC)cc1)S(=O)(=O)c1cccs1 | 0.473
O=C(NCc1ccc(F)cc1)C1CCN(S(=O)(=O)c2ccc3c(c2)OCCCO3)CC1 | -0.294
O=C(c1ccc2c(=O)n3c(nc2c1)CCCCC3)N1CCN(C(c2ccccc2)c2ccccc2)CC1 | -0.421
CN(c1ccc(C(=O)O)cc1)S(=O)(=O)c1ccc(Cl)cc1 | -0.198
O=C(O)CCS(=O)(=O)c1cccc2cccnc12 | -0.0363
CC1CCC(NC(=O)Cn2ncc3ccccc32)CC1 (stereo not given) | -0.134
C/C(N)=C(/C#N)C(=O)COC(=O)CCSc1ccccc1 | -0.31
COc1ccc(NC(=S)N(Cc2ccc(N(C)C)cc2)Cc2ccco2)cc1 | 0.23
CCOc1ccc(Nc2ncnc(N)n2)cc1 | active: 4.23
CN(Cc1ccccc1)C(=O)CSc1nc2c(c(C(F)(F)F)n1)CCc1ccccc1-2 | -0.0605
Clc1cccc(Cl)c1COn1nnc2ccccc21 | -0.938
COc1ccc2[nH]c(=O)c(CN(Cc3ccccc3OC)Cc3nnnn3CC3CCCO3)cc2c1 (stereo not given) | -0.28
C=CCn1c(=NC(=O)CN2C(=O)CCC2=O)sc2cc(S(N)(=O)=O)ccc21 | -0.0734
Cc1cc(C)c2[nH]c(=S)cc(C)c2c1 | active: 5.14
